Results on 97 molecules are retold here after PubChem BioAssay AID493208 (National Center for Advancing Translational Sciences (NCATS), 2011).

Out of some 44,000 compounds screened, about 340 (0.77%) were called active. About 5% were inconclusive and are not listed. Calls come from the whole dose curve; as a rule, active = well fitted inhibition curve with a large enough effect; inconclusive = small, poorly fitted or top-dose-only effect; inactive = flat fitted curve, though single readings scatter. The list shows a part of the results.
Potency is the fitted concentration of half-maximal effect.

A short description of this assay: Acumen qHTS Assay for Inhibitors of the mTORC1 Signaling Pathway in MEF (Tsc2-/-, p53-/-) Cells: Sytravon.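 For activity change, negative = inhibition: plate controls were DMSO for no effect and rapamycin for full effect.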 Note: nearly all actives have a fitted effect of over 50% in size. The conditions noted are these: phospho-rpS6 immunofluorescence/PI, 24 h; series mostly up to 38.3 µM; activity change, negative = inhibition: at the top concentration. The procedure, abridged: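 Read-out: phospho-S6 Alexa-488 intensity over PI intensity per well, scored as % active cells using thresholds from rapamycin (7.5 nM) and DMSO controls. Tsc2-/-, p53-/- MEFs exposed to compound for 24 h; PI cell count recorded as viability.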
(In general: qHTS replaces the single test concentration by a dilution series.)
`O=C(NCc1ccc(Cl)cc1)c1ccc2c(c1)NC(=O)C(CS(=O)(=O)Cc1ccc(F)cc1Cl)N2` (configuration not stated): the “activity change, negative = inhibition” value was inactive: -10.3%.
The same measure, in the same setting: for `O=C(CCN1CCN(CCO)CC1)Nc1ccc(Br)cc1` the value was inactive: 8.7%; for `COc1ccc(C)cc1NC(=O)c1cc2ccccn2n1`, inactive: -7.17%.
The same measure, in the same setting: next, `CCc1ccc(NC(=O)C2CCCN(S(=O)(=O)c3cccc4nsnc34)C2)cc1` (configuration not stated): inactive: -17%; `COc1cccc(NC(=O)CCc2nnc3n(Cc4ccccc4Cl)c(=O)c4ccccc4n23)c1`: inactive: -0.748%; `Cc1ccc(NC(=O)c2c(C)nc3sc(C(=O)Nc4ccc(F)cc4)c(N)c3c2-c2ccc(Cl)cc2)c(C)c1`: inactive: -2.64%.
Same read-out and setting: next, `O=C1CC(c2nnc(Cc3c(F)cccc3Cl)o2)CN1c1ccccc1` (configuration not stated): inactive: -4.76%.
In the case of `Cc1ccc(Nc2c(-c3ccc(N4CCOCC4)cc3)nc3cccc(C)n23)cc1`, the “activity change, negative = inhibition” value was inactive: -10.1%.
The same measure, in the same setting: next, `Cc1cccc(CN2C(=O)c3ccccc3S(=O)(=O)c3ccc(C(=O)N(C)Cc4ccccc4)cc32)c1`: inactive: 2.27%; `CCOc1ccccc1C(=O)Nc1ccc(-n2nncc2-c2ccccc2)cc1`: inactive: -20.1%.
The same measure, in the same setting: for `CCOC(=O)c1ccc(NC2(c3ccccc3)C(=O)c3ccccc3C2=O)cc1` the value was inactive: 3.54%.
On the same count and under the same terms, next, `COc1ccccc1C(=O)Nc1nnc(S(=O)(=O)N2CCN(c3ccc(F)cc3)CC2)s1`: inactive: 6.36%; `CCOC(=O)c1ccc(NC(=O)c2sc3ccccc3c2Cl)cc1`: inactive: 12.5%.
Consider `Cc1ccc(-c2nnc3ccccc3c2C(=O)Nc2ccc(C)c(F)c2)cc1`, for which the “activity change, negative = inhibition” value was inactive: -6.9%.
Same read-out and setting: next, `CCc1nnc(SCc2nc(-c3cccc(Cl)c3)oc2C)c2cc3sc(C)cc3n12`: inactive: 5.33%; `COc1cc(OC)c(NS(=O)(=O)c2cc3c(cc2C)N(C(C)=O)CCO3)cc1Cl`: inactive: 4.67%.
On the same count and under the same terms, for `COc1ccccc1NC(=O)CN(c1cc(C)cc(C)c1)S(=O)(=O)c1c(C)[nH]c(=O)[nH]c1=O` the value was inactive: -1.17%; for `NC(=O)c1c(NC(=O)c2cc(-c3ccc(F)cc3)on2)sc2c1CCCC2`, inactive: -4.01%.
Take `Cc1cccc(NC(=O)Cn2nnc(C(=O)NCc3cccs3)c2N)c1`: the “activity change, negative = inhibition” value was inactive: 2.89%.
The same measure, in the same setting: next, `CCC(C(=O)Nc1ccc(C(C)C)cc1)n1nc(C)n2c(cc3cc(C)ccc32)c1=O` (configuration not stated): inactive: 0.0813%.
For the molecule `COc1ccc(Cl)cc1NC(=O)CCn1c(=O)c2cccn2c2ccccc21`, the “activity change, negative = inhibition” value was inactive: -13.2%.
Regarding `CN(C)c1ccc(CNC(=O)C2CCCN(S(=O)(=O)c3ccc4c(c3)CCCC(=O)N4)C2)cc1` (configuration not stated), the “activity change, negative = inhibition” value was inactive: -8.67%.
In the case of `Cc1ccc(C)c(Cn2c(=O)cc(C(F)(F)F)c3c(C)nn(C)c32)c1`, the “activity change, negative = inhibition” value is inactive: -5.57%.
On the same count and under the same terms, next, `Cc1ccccc1C(=O)NCc1nc(-c2ccc(Cl)cc2)no1`: inactive: 3.37%; `Cc1ccc(Nc2c3c(nc4nc(-c5cccs5)nn24)CCCC3)cc1F`: inactive: -1.06%; `COc1ccc(N2C(=O)CSC23C(=O)N(Cc2cccc(C(F)(F)F)c2)c2ccccc23)cc1` (configuration not stated): inactive: -5.23%.
The same measure, in the same setting: for `CCOc1ccc2oc(=O)cc(CN3CCN(Cc4ccc(C)cc4)CC3)c2c1` the value was inactive: -13.7%.
For the molecule `Cc1oc(-c2ccc(Cl)cc2)nc1CS(=O)CC(=O)NCCc1ccccc1` (configuration not stated), the “activity change, negative = inhibition” value is inactive: 7.44%.
In the case of `Cc1ccc(S(=O)(=O)c2nc(-c3cccs3)oc2SCC(=O)Nc2cc(C)cc(C)c2)cc1`, the Potency is active: 20.7 µM.
For the molecule `COc1ccccc1OCC(=O)N(Cc1cccs1)C1CCS(=O)(=O)C1` (configuration not stated), the “activity change, negative = inhibition” value was inactive: 0.567%.
Still for that read-out and setting: next, `CCOC(=O)Cn1nc(C)c(NC(=O)COc2ccccc2)c1C`: inactive: 0.06%; `COc1ccc(S(=O)(=O)NC(C)(C)C)cc1-c1nnc2c3ccccc3c(C)nn12`: inactive: -1.2%; `COc1ccccc1CNc1nc(-c2ccco2)nn1S(C)(=O)=O`: inactive: 0%.
The same measure, in the same setting: next, `COc1ccc(-n2cc(-c3ccccc3)nc2SCC(=O)Nc2ccccc2C)cc1`: inactive: -4.29%.
The same measure, in the same setting: for `CCOC(=O)N1CCc2c(sc(NCc3cccc(F)c3)c2C(=O)Nc2ccc(OC)cc2)C1` the value was inactive: -6.12%.
On to `Cc1ccc(CNc2nc3ccc(Cl)cc3n3nnnc23)cc1`, for which the “activity change, negative = inhibition” value is inactive: -14.7%.
On the same count and under the same terms, next, `COC(=O)CC1Oc2ccc(F)cc2-n2cc(-c3ccc(C)cc3)nc21` (configuration not stated): inactive: -24.6%.
Same read-out and setting: next, `COc1cc(NC(=O)CCn2c(=O)oc3ccccc32)cc(OC)c1OC`: inactive: -1.88%.
Consider `COc1cc(OC)c(NS(=O)(=O)c2c(C(=O)N3CCCCCC3)c(C)n(C)c2C)cc1Cl`, for which the “activity change, negative = inhibition” value was inactive: -4.55%.
On the same count and under the same terms, next, `Cc1cc(-c2ccc(C)c(S(=O)(=O)Nc3ccccn3)c2)on1`: inactive: -2.19%.
On to `COc1ccc(N(Cc2cccs2)C(=O)COc2cccc(C)c2C)cc1`, for which the “activity change, negative = inhibition” value is inactive: -1.25%.
Consider `CSc1ccc(NC(=O)C2CCN(c3ncccn3)CC2)cc1`, for which the “activity change, negative = inhibition” value is inactive: -1.58%.
Regarding `CCN1CCN(c2ncc3c(n2)CCN(CC(C)C)C3)CC1`, the “activity change, negative = inhibition” value was inactive: 0%.
Same read-out and setting: next, `CCOc1ccc(-n2ccnc2SCC(=O)Nc2cccc3ccccc23)cc1`: inactive: -1.17%; `COc1ccc(Br)cc1CNC(=O)c1ccc2nc(C(C)C)oc2c1`: inactive: -7.37%; `COc1ccccc1CNC(=O)CCCCn1c(=O)c2ccccc2n(CC(=O)Nc2c(C)cc(C)cc2C)c1=O`: inactive: -22.4%.
Regarding `CCOc1ccccc1CNC(=O)CCC(=O)N1CCSc2ccccc21`, the “activity change, negative = inhibition” value was inactive: -1.46%.
Still for that read-out and setting: for `COc1ccccc1Cc1nc2ccccc2nc1SCC(=O)Nc1ccc2c(c1)OCO2` the value was inactive: -13.6%; for `CCCN(CCC)C(=O)CSc1c2c(nc3ccc(Cl)cc13)CCCC2`, inactive: -12%; for `Cc1ccc(NC(=O)CN2C(=O)C(c3ccc(C(C)(C)C)cc3)=NC2(C)C)cc1`, inactive: 0.893%.
On the same count and under the same terms, for `O=[N+]([O-])c1cc(-c2nc(-c3ccccc3)no2)ccc1NCc1cccnc1` the value was inactive: 2.5%; for `COc1ccc(N2CCN(C(=O)COc3ccccc3C#N)CC2)cc1`, inactive: -0.935%; for `Cc1cc(C)cc(-n2c(SCC(=O)Nc3cccc(F)c3)nc3c([nH]c4ccccc43)c2=O)c1`, inactive: -1.49%.
On the same count and under the same terms, for `COc1ccc(OC)c(NC(=O)Cn2c(=O)n(Cc3ccco3)c(=O)c3cc(OC)c(OC)cc32)c1` the value was inactive: -0.761%; for `Cc1ccc(C)c(NC(=O)C(Cc2ccccc2)n2cccc2)c1` (configuration not stated), inactive: -4.02%; for `Cc1ccc(C(=O)Nc2ccc(-c3nc4ccccc4o3)cc2)cc1Cl`, inactive: 5.69%.
Turning to `Brc1ccc(Nc2c3c(nc4nncn24)CCC3)cc1`, the Potency is active: 5.85 µM.
For `Cc1ccc(NC(=O)C2CCC(CNS(=O)(=O)c3ccc4c(c3)CCCC(=O)N4)CC2)cc1F` (configuration not stated), the “activity change, negative = inhibition” value was inactive: -2.83%.
Still for that read-out and setting: for `COCCNc1nc2c(c(=O)n(Cc3cccc(Cl)c3)c(=O)n2C)n1C` the value was inactive: -3.89%.
Consider `COc1ccc2c(c1)c1c(c(=O)n(Cc3ccccc3)c(=O)n1Cc1ccccc1Cl)n2C`, for which the “activity change, negative = inhibition” value was inactive: -0.576%.
With `CCc1ccc(NC(=O)C2=C(C)C(=O)OC23CCCCC3)cc1`, the “activity change, negative = inhibition” value was inactive: -3.79%.
On the same count and under the same terms, next, `COc1ccc(OCC(=O)Nc2c(C(=O)N3CCN(c4ccccc4)CC3)oc3ccccc23)cc1`: inactive: 3.28%.
As for `CCOC(=O)c1c(-c2ccc(OC)c(OC)c2)csc1NC(=O)c1ccc(C)cc1`, the “activity change, negative = inhibition” value is inactive: -3.82%.
On the same count and under the same terms, for `CCCCN1CCCc2cc(CN(CCCN3CCOCC3)C(=O)Nc3ccc(CC)cc3)ccc21` the value was inactive: -0.356%.
Still for that read-out and setting: next, `O=C(NCc1ccc(F)cc1)c1cc2cccc3c2n1CCS3`: inactive: 3.49%.
`O=C(O)c1cccc(NC(=O)c2cc3cc(Br)cc(Br)c3oc2=O)c1`: the “activity change, negative = inhibition” value was inactive: 5.29%.
The same measure, in the same setting: next, `COc1ccc(S(=O)(=O)N(CC(=O)NCCSc2ccccc2)c2ccc(C)cc2)cc1`: inactive: -23.2%.
On the same count and under the same terms, next, `CC(=O)c1cccc(NC(=O)Cc2ccc(NC(=O)N3CCCCc4ccccc43)cc2)c1`: inactive: -1.46%.
Still for that read-out and setting: next, `COC(=O)c1ccc(NC(=O)C(=O)NCC(c2cccnc2)N2CCN(c3ccccc3)CC2)cc1` (configuration not stated): inactive: 1.23%.
Regarding `CCOC(=O)c1cc(-c2ccccc2)n(CCC(=O)NCCc2cccc(C)c2)c1C`, the “activity change, negative = inhibition” value is inactive: -7.43%.
On the same count and under the same terms, for `COc1ccc(S(=O)(=O)NCCc2sc3nc(-c4ccc(C)cc4)nn3c2C)cc1C` the value was inactive: -2.75%; for `CCC(=O)N1CCc2cc(S(=O)(=O)CCC(=O)N3CCN(c4ccccc4F)CC3)ccc21`, inactive: 0.163%; for `CN1CCN(C(CNC(=O)C(=O)Nc2ccc(F)cc2)c2cccnc2)CC1` (configuration not stated), inactive: -4.73%.
Still for that read-out and setting: next, `Cc1cc2oc(C(=O)Nc3nc(-c4ccccc4)ns3)c(C)c2cc1Cl`: inactive: -6.94%; `Cc1ccc(NC(=O)CN2C(=O)CCc3cc(S(=O)(=O)N4CCOCC4)ccc32)c(C)c1`: inactive: 1.22%.
On the same count and under the same terms, for `CCOc1ccc(CNC(=O)c2sc3nc(C)cc(C)c3c2-n2cccc2)cc1` the value was inactive: -2.36%; for `CC(=O)c1ccc(NS(=O)(=O)c2ccc3[nH]c4c(c3c2)CCCCCC4)cc1`, inactive: -10.2%; for `CCC(CC)C(=O)N1CCc2cc(OC)c(OC)cc2C1COc1ccccc1OC` (configuration not stated), inactive: 6.6%.
Turning to `Cc1ccc(C)c(Cn2nnc(C(=O)NCc3ccccc3)c2N)c1`, the “activity change, negative = inhibition” value was inactive: -2.04%.
On the same count and under the same terms, next, `CCOc1ccc(NC(=O)CSc2nnc(NC(=O)Nc3ccccc3)s2)cc1`: inactive: 1.63%; `Cc1nc2cc(-c3cccc(F)c3)nn2c(C)c1CCC(=O)NC1CCCCC1`: inactive: -11.4%.
The same measure, in the same setting: for `CCOc1ccc(-c2nonc2NC(=O)COc2ccc(C)c(C)c2)cc1OCC` the value was inactive: -1.68%; for `COc1ccc(-c2nn(C)c3sc(C(=O)N4CCN(c5cc(Cl)ccc5C)CC4)cc23)cc1OC`, inactive: -3.26%.
The same measure, in the same setting: next, `O=C(c1ccc2c(c1)N(Cc1cccc(Cl)c1)C(=O)c1ccccc1S2(=O)=O)N1CCN(c2cccc(C(F)(F)F)c2)CC1`: inactive: -0.126%; `CCOc1ccc(-c2cnc(NCc3cccc(Cl)c3)n2C)cc1`: inactive: -2.38%; `COc1ccc(C(=O)CCC(=O)Nc2cccc(C(C)=O)c2)cc1`: inactive: -0.629%.
`COc1ccc(CCNC(=O)Cn2c(=O)c3cccn3c3ccc(F)cc32)cc1OC`: the “activity change, negative = inhibition” value is inactive: 10.6%.
Still for that read-out and setting: next, `Cc1ccccc1-n1nc(CO)c(C(=O)NCCc2ccccc2)n1`: inactive: 1.72%; `COc1cccc(NC(=O)C(=O)NCC(c2cccnc2)N2CCN(c3ccccc3)CC2)c1` (configuration not stated): inactive: 0%; `COc1ccc(OC)c(CNc2ncnc3onc(-c4ccc(Cl)cc4)c23)c1`: inactive: -27.9%.
On the same count and under the same terms, next, `CCOC(=O)CSc1nc2ccc(NC(=O)COc3ccccc3)cc2s1`: inactive: -7.39%; `Cc1cccc(CSc2cn(CC(=O)N3CCCCCC3)c3ccccc23)c1`: inactive: -24.9%; `CCCOc1ccc(-c2cccc(NS(=O)(=O)c3cc(OC)ccc3OC)c2)nn1`: inactive: -2.02%.
The same measure, in the same setting: for `O=C(NCc1ccc(Cl)cc1)c1cnc2sc(N3CCCCCC3)nn2c1=O` the value was inactive: 0.721%; for `CCN(CC)c1ccc(NC(=O)c2cnn3c(C(F)F)cc(-c4ccccc4)nc23)cc1`, inactive: 15.4%; for `O=C(CCC(=O)N1Cc2ccccc2Oc2ncccc21)NCc1ccccc1Cl`, inactive: 6.33%.
For `COc1ccc(C(c2c(O)cc(C)n(Cc3ccco3)c2=O)N2CCN(c3ccccc3)CC2)cc1` (configuration not stated), the “activity change, negative = inhibition” value was inactive: -0.873%.
